Data taken from PubChem BioAssay AID1963576 (National Center for Advancing Translational Sciences (NCATS), 2024).
Among all 46,000 compounds or so, about 60 (0.1%) were called active. Not shown: some 3% with an inconclusive outcome. The call rests on the fitted dose curve; in most records, active means well fitted inhibition curve with a large enough effect; inconclusive means small, poorly fitted or top-dose-only effect; inactive means no such curve, though single readings can be large or run the other way. The list shows a part of the results.

test: Primary qHTS assay for Inhibitors of ovarian cancer metastasis using an organotypic tumor microenvironment (TME) model.; further: nearly all actives have a fitted effect of over 65% in size;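 on activity change, negative = inhibition: plate controls were DMSO wells for no effect and tomatine positive control wells for full effect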; conditions: SKOV3ip1-GFP adhesion/invasion on 3D omental model, fluorescence; series mostly up to 45.8 µM; activity change, negative = inhibition: at the top concentration
How it was run: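 A 3D layer of primary human omental fibroblasts, mesothelial cells, fibronectin and collagen I, grown 48 hr, received SKOV3ip1-GFP cells in serum-free medium plus compounds at 0.36-46 umol/L. After 2 hr RT and 16 hr 37 C, fixed adherent GFP cells were counted; normalized to DMSO and tomatine.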

outcome, inactive:
COc1ccc(C)cc1NC(=O)CN1C(=O)CCc2cc(S(=O)(=O)N3CCOCC3)ccc21, Cc1ccc(NC(=O)C2CCN(c3nc4ccccc4[nH]3)CC2)cc1Cl, CC1Cc2cc(S(=O)(=O)NCc3ccc(F)cc3)ccc2N1C(=O)C1CCC1 (stereo unspecified), COC(=O)c1cc2sc(C)cc2n1Cc1ccc(F)cc1Cl, COc1cccc(CSc2nc3cc(OC)c(OC)cc3c3nc(CCn4nc(C)cc4C)nn23)c1, O=C(NC1(C(F)(F)F)NC(=O)N(CCc2ccccc2)C1=O)c1ccccc1F (stereo unspecified), COc1ccccc1CNC(=O)Cn1c(=O)ccc2cc(S(=O)(=O)N3CCC(C)CC3)ccc21, O=c1n(Cc2ccc(F)cc2Cl)c2ccccc2c2nc(-c3ccccc3)nn12, Cc1cccc(CS(=O)(=O)CC2Nc3ccc(C(=O)NCc4ccccc4)cc3NC2=O)c1 (stereo unspecified), Cc1ccc(-n2ncc(C(=O)N3CCN(c4ccccn4)CC3)c2C2CCN(C(=O)OC(C)(C)C)CC2)cc1C, CCOC(=O)c1ccc(N2C(=O)c3n[nH]c(C)c3C2c2ccc(O)c(OC)c2)cc1 (stereo unspecified), COc1ccc(CCNC(=O)Cc2c(C)c3ccc(O)c(C)c3oc2=O)cc1OC, Cc1c(NC(=O)Nc2ccccc2C(F)(F)F)c(=O)n(-c2ccccc2)n1C, Cc1cc(C)c(NC(=O)CN(c2ccccc2)S(=O)(=O)N(C)C)c(C)c1, CCOC(=O)c1cnc2c(Cl)c(Cl)ccc2c1Nc1ccc(N(C)C)cc1, Cc1ccccc1-n1c(=O)c2ccccc2n(Cc2ccc(F)cc2)c1=O, CCOC(=O)c1ccccc1NC(=O)CN(c1cc(C(F)(F)F)ccc1Cl)S(C)(=O)=O, COc1cccc(NC(=O)Cn2c(=O)c3cccn3c3ccc(F)cc32)c1, O=S(=O)(c1ccccc1)n1nc(-c2ccc(Cl)cc2)nc1NCc1ccc(F)cc1, CN(CC(=O)NCc1ccc(Cl)cc1)S(=O)(=O)c1ccc2c(c1)c(=O)n(C)c(=O)n2C, CCOc1ccccc1NC(=O)Nc1ccccc1OCc1cc(=O)n2ccccc2n1, CC(Nc1ncnc2c1cnn2-c1cccc(Cl)c1)c1ccccc1 (stereo unspecified), COc1cccc(-c2cc(C(=O)Nc3ccc(OC)cc3OC)no2)c1

Activity change, negative = inhibition, inactive:
O=C(NCc1cccs1)c1ccc(CSc2nc3ccncc3n2Cc2cccc(F)c2)cc1 -5.55%, CCOC(=O)c1c(-c2ccc(C)cc2)csc1NC(=O)c1cc(=O)c2cc(C)c(C)cc2o1 -5.94%, CN1CCC(=C2c3ccccc3C=Cc3ccccc32)CC1 4.04%, CCOc1ccc2nc(N(Cc3cccnc3)C(=O)c3ccc4c(c3)OCCO4)sc2c1 1.57%, O=S(=O)(c1ccc(Cl)cc1)c1nc(-c2ccccc2Br)oc1N1CCOCC1 -3.81%, CC(C)Oc1ccc(C(=O)Nc2ccc3oc(-c4ccncc4)nc3c2)cc1 -8.4%, Cc1[nH]c2ccc(F)cc2c1CCNC(=O)c1cc2cc(Cl)ccc2oc1=O 11.1%, COc1ccc(S(=O)(=O)NCC(c2cccs2)S(=O)(=O)c2ccc(C)cc2)cc1F (stereo unspecified) -6.6%, COc1ccc(-c2cn3nc(N4CCCC(C(=O)Nc5ccc(Cl)cc5C)C4)sc3n2)cc1 (stereo unspecified) 3.18%, CC1Cc2ccccc2N1S(=O)(=O)c1nnc(NC(=O)c2ccccc2Br)s1 (stereo unspecified) 0.251%, Cc1ccc(CCNC(=O)c2nnc(Cc3cccc(F)c3)o2)cc1 11.5%, COc1ccc2c(c1)CCc1c(C(=O)Nc3c(C)nn(Cc4ccccc4Cl)c3C)noc1-2 0.0887%, Cn1c(=O)c2c(nc(NCCc3ccccc3)n2Cc2cccc(Br)c2)n(C)c1=O -27.3%, CCCCN(CC)CCCNC(=O)c1cn(CC(C)C)c(=O)c2c1c1ccccc1n2C -1.01%, Cc1ccc(CNC(=O)c2c[nH]c3ccc(S(=O)(=O)Nc4ccc(C(C)C)cc4)cc3c2=O)cc1 14.1%, COc1ccc(Cl)cc1NS(=O)(=O)c1c(C)nc2scc(C)n2c1=O -2.39%, COc1cc(NC(=O)C(NC(=O)C2CCC(C)CC2)C(C)C)cc(OC)c1OC (stereo unspecified) -8%, COCCCn1c(=N)c(C(=O)NC2CCCCC2)cc2c(=O)n3ccccc3nc21 20.1%, COc1ccc(NC(=O)Cn2cnc3c(nc4n3CCCCC4)c2=O)c(OC)c1 1.73%, COc1ccc(C(=O)Nc2onc3c2CCCC3)cc1 -2.55%, Cc1c(CNC2CCCCCC2)c(C(=O)O)c(C)n1Cc1c(F)cccc1Cl -1.43%, COc1ccc(C2=CC(c3ccc(N(C)C)cc3)n3nnnc3N2)cc1 (stereo unspecified) -20.5%, CCOC(=O)c1ccccc1NC(=O)Cc1c(C(=O)O)c(C)cn1C -18.7%, Cc1cc(=O)oc2c3c(ccc12)OCN(Cc1ccccc1Cl)C3 1.89%, COc1ccc(N2CCN(C(=O)Cn3cnc4sc(C)c(S(=O)(=O)N5CCC(C)CC5)c4c3=O)CC2)cc1 -2.84%, O=c1n(Cc2ccc([N+](=O)[O-])cc2)c2ccccc2c2nc(-c3ccccc3)nn12 -12.6%, Cc1ccc(NC(=O)N(Cc2c[nH]c3ccccc23)C2CCCCCC2)cc1C 5.05%, COc1ccc(CCNC(=O)CCN2N=C(c3ccccc3)CCC2=O)cc1OC -0.544%, O=C(CS(=O)(=O)c1ccc(Cl)cc1)Nc1nc2ccc(Br)cc2s1 3.33%, Cc1ccc(Cn2cnc3nc4c(cc3c2=O)CCCC4)cc1 0.0094%, CCOc1ccc(NC(=O)c2cccc3c(=O)c4c([nH]c23)CCCC4)cc1 -6.05%, Cc1cc(C)cc(-n2c(SCC(=O)Nc3ccccc3F)nc3c(oc4ccccc43)c2=O)c1 3.28%, Cc1ccc(C(=O)N2CCc3cc(CNC(=O)c4ccccc4F)ccc32)cc1 -2.81%, Cn1c(=O)n(C)c2cc(CNCc3ccc(F)cc3)ccc21 -4.04%, Cc1oc2ncn(CC(C)C)c(=O)c2c1C(=O)N1CCN(c2ccccc2F)CC1 1.73%, CCc1ccc(NC(=O)C2(c3cccs3)CCOCC2)cc1 -6.51%, Cc1ccccc1NC(=O)c1cc2ccccc2o1 -9.92%, Clc1ccc(-c2nnn3c2nc(N2CCCCC2)c2ccccc23)cc1 -8.56%, CCOc1ccc(NC(=O)c2cnn3c2NC(c2ccccc2)=CC3c2cccc(OC)c2OC)cc1 (stereo unspecified) -7.31%, C#Cc1cccc(Nc2ncnc3cc(OC)c(OCCCCCCC(=O)NO)cc23)c1 6.34%, O=C(Nc1ccc2oc(-c3ccc4ccccc4c3)nc2c1)c1cccc(Cl)c1Cl -4.81%, CSc1ccc(CCNC(=O)CN2C(=O)COc3ccc(S(=O)(=O)N4CCCC4)cc32)cc1 4.62%, O=C(Nc1ccc(F)cc1)c1ncn(-c2ccccc2)n1 -0.756%, COc1ccc(-n2c(=O)c3c4c(sc3n(Cc3c(F)cccc3Cl)c2=O)CN(C(C)=O)CC4)cc1OC 1.11%, COc1ccc(C2CC(=O)N(Cc3cccc(C)c3)c3c2c(C)nn3-c2nc(C)cc(C)n2)c(OC)c1 (stereo unspecified) -0.082%, COC(=O)c1sc2cccc(F)c2c1S(=O)(=O)NCc1ccc(F)cc1 9.21%, COc1cccc(N2CCN(S(=O)(=O)c3ccc(-c4cc(C(F)(F)F)on4)s3)CC2)c1 4.57%, Cc1ccc(CCNC(=O)CCS(=O)(=O)c2ccc3c(c2)oc(=O)n3C)cc1 -4.23%, O=C(Cn1ccc2cc(S(=O)(=O)N3CCCCCC3)ccc21)NCCc1ccccc1Cl 0.351%, COc1cccc(-c2nc(SCC(=O)NCc3ccccc3)c3c(=O)n(C)c(=O)n(C)c3n2)c1 5.8%, CCCCSCCCNC(=O)c1cn(CC)c2ccc(S(=O)(=O)N(C)C3CCCCC3)cc2c1=O -1.71%, CCCc1cc(C(N)=S)ccn1 23%, Cc1ccc(-c2noc(CN(C(=O)c3ccc(C(C)(C)C)cc3)C(C)C)n2)cc1 -2.15%, CCOC(=O)C1=C(C)NC2=C(C(=O)CC(C)(C)C2)C1c1ccc(-c2ccccc2)cc1 (stereo unspecified) -22.6%, CCOC(=O)c1scc(-c2ccc(C)cc2)c1S(=O)(=O)Nc1cc(C)ccc1C 2.51%, Cc1ccc(CCNC(=O)c2ccc(CS(=O)(=O)Cc3ccc(Cl)cc3)o2)cc1 1.29%, Cc1noc(NS(=O)(=O)c2ccc(NC(=O)COc3ccccc3Br)cc2)c1C 2.19%, COc1cc(Cl)c(C)cc1NC(=O)Cn1cnc2sc(C)c(S(=O)(=O)N3CCCCC3)c2c1=O -3.25%, Cc1cc2c(cc1C)NC(CC(=O)Nc1cccc(C)c1C)C(=O)N2 (stereo unspecified) 6.9%, CCS(=O)(=O)c1c(S(=O)(=O)CC)c2cc(C(C)(C)C)ccn2c1C(=O)c1ccc(F)cc1 -8.96%, O=C(NCc1ccc(Cl)cc1)C(=O)NCC(c1cccnc1)N1CCN(c2ccccc2)CC1 (stereo unspecified) -4.79%, COc1cccc(-c2nnc(SCC(=O)N3CCc4ccccc43)o2)c1 11.2%, CCOc1ccccc1NC(=O)Cn1c(=O)n(-c2ccc(C)c(C)c2)c(=O)c2c(C)c(C(=O)N(C)C)sc21 -3.24%, Cc1ccc2oc(=O)c(-c3nc(-c4cccs4)no3)cc2c1 -15.1%, CC(C)CNc1ccnc(NCc2csc(-c3ccccc3)n2)n1 5.63%, CCN(c1ccc(C)cc1C)S(=O)(=O)c1nnc(NC(=O)c2ccc(F)cc2)s1 -9.71%, Cc1nc2nc(SCC(=O)NCCc3ccc(Cl)cc3)nn2c(C)c1Cc1c(F)cccc1Cl 1.13%, CCOCCCNC(=O)CCC(=O)NNc1nc2ccccc2c2nc(C)nn12 7.69%, Cc1ccc(NC(=O)C2CCCN2S(=O)(=O)c2ccc3c(c2)n(C)c(=O)c(=O)n3C)cc1 (stereo unspecified) -3.67%, Cc1csc2nc(COC(=O)c3ccc(NC(=O)c4ccccc4Br)cc3)cc(=O)n12 3.34%, COc1ccc(OC)c(NC(=O)CN(c2ccccc2OC)S(=O)(=O)c2ccc(C)cc2)c1 27.2%, O=C(Nc1cccc(C(=O)OCc2cc(=O)n3ccsc3n2)c1)c1ccc(F)cc1 -7.78%, COc1ccc(-n2cnc3cc(C(=O)NCCC4=CCCCC4)ccc32)cc1 -10.3%
